Results from PubChem BioAssay AID463173 (ICCB-Longwood Screening Facility, Harvard Medical School, 2010).
The whole screen tested about 52,000 compounds, of which about 4,300 (8.3%) were called active. Cut-off read from the data, not from the text of the source: active = survival mostly below about 52% (no sharp cut-off); inactive = mostly above about 56%. The list shows a part of the results.

test system: DeltatarO mutant; test: S. aureus survival, RN4220 and DeltatarO strains – OD600, teichoic acid synthesis inhibitors, primary screen (AID 463173); details: S. aureus RN4220 wild type/DeltatarO growth, OD600, 18 h, active compounds read low, screened at 18.75 µg/mL (by protocol)

Structure (SMILES) | survival
COc1ccccc1N1CCN(S(=O)(=O)c2ccc(-c3cnc(C4CC4)o3)cc2)CC1 | inactive: 113%
CC(C)CCNC(=O)c1cn(C)c2ccc(S(=O)(=O)N3CCOCC3)cc2c1=O | inactive: 77%
Cc1ccc(OCc2nnc(-c3ccccc3)o2)cc1 | inactive: 54%
Cc1ccc(NC(=O)C2CCCN(S(=O)(=O)c3ccc4c(c3)CCCC(=O)N4)C2)cc1Cl (stereo not given) | inactive: 88%
Cc1ccc(Cl)cc1N1CCN(C(=O)C2CCCN(Cc3nc(-c4cccc(Cl)c4)oc3C)C2)CC1 (stereo not given) | inactive: 66%
CCCCNc1nc2c(c(=O)n(Cc3ccccc3)c(=O)n2C)n1C | inactive: 66%
COc1ccc(N(C)C(=O)c2cc3c(s2)-c2ccccc2OC3)cc1 | active: -2%
COc1cc(OC)c(OC)cc1/C=C/c1nc2ccccc2c(=O)n1-c1ccc(Br)c(C)c1 | inactive: 78%
Cc1cc(C(=O)Nc2cccc(C)c2C)c2c(C)nn(-c3cccc(F)c3)c2n1 | inactive: 94%
O=C(c1ccc(Cl)cc1)c1cn(Cc2ccccc2)c2cc3c(cc2c1=O)OCCO3 | inactive: 76%
Cc1ccc(NC(=O)Cn2c(=O)ccc3cc(S(=O)(=O)N4CCCC4)ccc32)cc1N(C)C | active: 32%
O=C(NCc1ccc(Cl)cc1)c1ccc2c(c1)N(Cc1ccccc1F)C(=O)c1ccccc1S2=O (stereo not given) | inactive: 114%
CCc1ccc(CNC(=O)c2ccc(CS(=O)(=O)Cc3cccc(C)c3)o2)cc1 | inactive: 80%
COc1ccc(CCNC(=O)C(=O)NCC(c2cccnc2)N2CCN(c3ccccc3)CC2)cc1 (stereo not given) | inactive: 100%
CCC(C(=O)NCCc1ccc(Cl)cc1)n1ccc2cc(S(=O)(=O)N3CCCCC3)ccc21 (stereo not given) | inactive: 103%
COc1ccc(C(=O)N2CCN(c3nc4c(C)c(Cl)ccc4s3)CC2)c(OC)c1 | inactive: 98%
CCOc1ccc(NC(=O)CN(C)S(=O)(=O)c2ccc3[nH]c4c(c3c2)CCCC4)cc1 | inactive: 65%
Cc1cc(-c2ccc(S(=O)(=O)Nc3cccc(Cl)c3C)cc2)on1 | inactive: 94%
CC(C)CCNC(=O)c1ccc2c(c1)nc1n2CCCCC1 | inactive: 86%
CCCC(=O)Nc1ccc2nc(SCc3ccc(C)cc3)sc2c1 | inactive: 107%
COCCNc1ccc(-c2nc(-c3ccccn3)no2)cc1[N+](=O)[O-] | active: 43%
COc1ccc(C)cc1NC(=O)Cc1c(C(=O)O)c(C)cn1C | inactive: 68%
Nc1ccc2oc(Cc3ccc(Cl)cc3)nc2c1 | inactive: 80%

Structure (SMILES) | survival
CCOc1ccccc1-c1nc(C(N)=O)c2c(n1)n(-c1ccc3c(c1)OCO3)c(=O)n2C | inactive: 79%
CC(=O)Nc1ccc(S(=O)(=O)N(Cc2ccccc2)Cc2ccccc2)cc1 | active: 54%
CCn1c(=O)cc(SCC(=O)NCc2ccc(C)cc2)c2ccccc21 | inactive: 84%
O=C(NCc1ccco1)c1ccc2c(c1)N(Cc1ccccc1F)C(=O)c1ccccc1S2(=O)=O | inactive: 80%
C=Cc1ccc(Cn2c(=O)n(CC3CCC(C(=O)NC(C)C)CC3)c(=O)c3sccc32)cc1 (stereo not given) | inactive: 76%
CCCCNC(=O)c1ccc2c(c1)NC(=O)C(CS(=O)(=O)Cc1ccc(F)cc1Cl)N2 (stereo not given) | inactive: 74%
COc1cccc(NC(=O)CCN2CCN(CCO)CC2)c1 | inactive: 158%
Cc1ccc2cc3cc(C(=O)N(C)c4ccccc4C)oc3nc2c1 | active: 53%
CCc1cccc(N2C(=O)N(Cc3c(F)cccc3Cl)c3ccccc3S2(=O)=O)c1 | inactive: 92%
CCc1cnc2c(c1SCCC(C)C)c(=O)n(C)c(=O)n2C | inactive: 88%
CCOC(=O)c1ccc(NC(=O)c2c(NCc3cc(OC)ccc3OC)sc3c2CCC3)cc1 | inactive: 80%
CC(=O)c1cccc(NC(=O)CSc2nc3c(=O)n(C)c(=O)n(C)c3n2C)c1 | inactive: 79%
CC(C)CCn1c(=O)c2sccc2n2c(CCCC(=O)NC(C)c3ccccc3)nnc12 (stereo not given) | inactive: 88%
Cc1cccc(-n2cnc3cc(C(=O)NC4CCCCCC4)ccc32)c1 | inactive: 106%
Cc1cccc(OCC(=O)Nc2ccccc2C(=O)OCc2cc(=O)n3nc(C4CC4)sc3n2)c1 | inactive: 86%
Cc1cccc(N2CCN(c3nc4ccccc4c4nc(-c5cccnc5)nn34)CC2)c1C | inactive: 81%
Cc1ccc(CCNC(=O)c2cc3c(=O)n(C)c4ccccc4c3n2C)cc1 | inactive: 63%
C=CCn1c(N)cc(=O)nc1SCC(=O)NC1CCCCC1 | inactive: 96%
CC(=O)c1cc(-c2ccccc2)n(CC(=O)NCc2ccccc2C)c1C | inactive: 65%
COC(=O)c1cc2sc(C)cc2n1CC(=O)Nc1ccc(C)cc1Cl | inactive: 69%
CC(C)OCCCNC(=O)c1nn(C)c2c1CSc1ccccc1-2 | inactive: 86%
CCCOC(=O)c1ccc(Nc2c(C(=O)OCC)cnc3c(C)cc(Cl)cc23)cc1 | active: 11%
COc1ccc(-c2noc(CSc3nnc(-c4ccccc4)n3C)n2)cc1 | inactive: 62%

Structure (SMILES) | survival
COc1ccc(C)cc1NC(=O)CN1CCN(S(=O)(=O)c2ccc(Br)cc2)CC1 | inactive: 81%
Cc1ccc(NC(=O)Cn2cc(S(=O)(=O)N3CCCC3)c(S(=O)(=O)N3CCCC3)c2)cc1C | inactive: 70%
CCN1CCN(c2cc(C)c3cc(NC(=O)/C=C/c4cccc(Cl)c4)ccc3n2)CC1 | active: 44%
CCOc1ccc(NC(=O)c2ccc(-c3cccc(Cl)c3C)o2)cc1 | active: 42%
Cc1ccc(N2CC(c3nnc(NC(=O)c4ccco4)s3)CC2=O)cc1C (stereo not given) | inactive: 62%
COC(=O)Cn1cnc2c1c(=O)[nH]c(=O)n2C | inactive: 105%
O=C(NC1CCCC1)c1ccc(CSc2nc3ccncc3n2Cc2ccc(F)cc2)cc1 | inactive: 68%
COc1ccc(-n2cc(C(=O)NC(C)c3ccccc3)c3ccccc3c2=O)cc1 (stereo not given) | inactive: 60%
COc1ccc(C(=O)NCCSc2c(C)[nH]c3ccccc23)cc1 | inactive: 92%
CN1CN2C(=O)N3CN(C)CN4C(=O)N(C1)C2C34 (stereo not given) | inactive: 73%
COCCn1ccc2c(OCC(=O)NCc3ccc(F)cc3)cccc2c1=O | inactive: 92%
Cc1ccc(NC(=O)Nc2nnc(SCC(=O)N3CCC(C)CC3)s2)cc1 | inactive: 70%
O=c1c2cc3c(nc2ncn1Cc1ccccc1F)CCCC3 | inactive: 100%
Cc1cccc(C2C=C(c3ccc(F)cc3)Nc3nc4ccccc4n32)c1 (stereo not given) | inactive: 84%
CCOC(=O)c1cnc2c(ccc3ccccc32)c1Nc1ccc(OC)c(OC)c1 | active: 7%
CCOc1ccc(Cn2c(CNS(=O)(=O)c3ccc([N+](=O)[O-])cc3)nc3cccnc32)cc1 | inactive: 94%
Cc1ccc(NC(=O)/C(C#N)=C/c2cn(CC(=O)NCc3ccco3)c3ccccc23)cc1Cl | inactive: 64%
Cc1ccc(OCC(O)CN)cc1 (stereo not given) | inactive: 88%
COc1ccccc1CNC(=O)c1oc2c(c1C)-c1nn(Cc3ccc(Cl)cc3)cc1CC2 | inactive: 59%
CN(C)c1ccc(CNC(=O)C2CCN(S(=O)(=O)c3cn(C)cn3)CC2)cc1 | active: 0%
Cc1c(C(=O)Nc2ccncc2)oc2ccccc12 | inactive: 98%
Cc1ccc(C)c(CN2C(=O)c3ccccc3S(=O)c3ccc(C(=O)NCCc4ccc(Cl)cc4)cc32)c1 (stereo not given) | inactive: 65%
Cc1c(NS(C)(=O)=O)cccc1-c1nc2ccccc2s1 | inactive: 49%

Structure (SMILES) | survival
O=c1c2ccc(N3CCOCC3)c3cccc(c32)c2nc3ccccc3n12 | inactive: 90%
COc1ccc(NC(=O)c2sc3nc(-c4cc5cccc(OC)c5oc4=O)[nH]c(=O)c3c2C)cc1 | inactive: 46%
COc1ccccc1-c1cc(C(F)(F)F)nc(S(=O)(=O)CCCC(=O)Nc2ccc(F)c(Cl)c2)n1 | inactive: 87%
COc1ccc(C(=O)N2CCC(c3c[nH]c4ccccc34)(c3c[nH]c4ccccc34)CC2)cc1 | inactive: 84%
COc1cc(C2/C(=C(\O)c3ccc(F)cc3)C(=O)C(=O)N2Cc2cccnc2)ccc1O (stereo not given) | inactive: 88%
Cc1ccc(NC(=O)CN2C=NS(=O)(=O)c3ccccc32)c(C)c1 | inactive: 99%
COc1ccc(NC(=O)CN2C(=O)COc3ccc(S(=O)(=O)N4CCOCC4)cc32)cc1Cl | inactive: 87%
COc1ccc(NC(=O)Nc2nnc(N3CCCCCC3)s2)c(OC)c1 | inactive: 73%
COc1ccc(N2CCN(C(=O)CCS(=O)(=O)c3cc(Br)cc4c3N(C(=O)C3CC3)CC4)CC2)cc1 | inactive: 94%
NCc1ccoc1C(=O)O | inactive: 98%
CC1CCN(CC(=O)Nc2ccc(C(=O)O)cc2)CC1 | inactive: 59%
CCOc1ccc(N(CC)S(=O)(=O)N2CCCC(C(=O)NCc3ccc(SC)cc3)C2)cc1 (stereo not given) | inactive: 70%
COc1cccc(CNC(=O)NCc2noc3ccc(C)cc23)c1 | inactive: 74%
Cn1nc(CC(=O)Nc2ccc3c(c2)CCC3)c2ccccc2c1=O | inactive: 106%
Cc1nc2cc(C(=O)O)ccc2n1-c1ccc(C(C)C)cc1 | inactive: 68%
CCOC(=O)c1sc(NC(=O)c2cc3nc(-c4ccc(Br)cc4)cc(C(F)(F)F)n3n2)c(C(=O)OCC)c1C | inactive: 112%
CCOC(=O)CCn1nc(C)c2c(C)n(-c3ccccc3)nc2c1=O | inactive: 87%
Cc1cccc(N2CCN(C(=O)Cn3c(=O)c4cccn4c4ccc(F)cc43)CC2)c1C | inactive: 74%
Cc1ccc(N2CC(NC(=O)CCc3ccccc3)CC2=O)cc1 (stereo not given) | active: 20%
COc1ccccc1C(=O)NC(=O)Nc1ccc(-n2nc(C(F)(F)F)cc2C(F)(F)F)cc1 | inactive: 59%
COc1ccc(C2(O)CC3CCC(C2)N3c2cc(C)nc(-c3ccccc3)n2)cc1 (stereo not given) | inactive: 85%
